Experimental data reported in publication PMC10199079, “ERK and USP5 govern PD-1 homeostasis via deubiquitination to modulate tumor immunotherapy” (Nature Communications, 2023).
These are yes or no findings as the source states them, for the method shown. In cells and extracts the contact can be indirect. Some entries that bind do so weakly or less than the wild type.

Protein sequences, listed by entry. Tags and fused reporters are not part of them. Lines headed by an entry give the natural chain unless they say otherwise; changes in a name come on top. Chains listed by the source or under a name are the forms on record and can include a tag or linker. Residues count along the entry.
UniProt Q15116: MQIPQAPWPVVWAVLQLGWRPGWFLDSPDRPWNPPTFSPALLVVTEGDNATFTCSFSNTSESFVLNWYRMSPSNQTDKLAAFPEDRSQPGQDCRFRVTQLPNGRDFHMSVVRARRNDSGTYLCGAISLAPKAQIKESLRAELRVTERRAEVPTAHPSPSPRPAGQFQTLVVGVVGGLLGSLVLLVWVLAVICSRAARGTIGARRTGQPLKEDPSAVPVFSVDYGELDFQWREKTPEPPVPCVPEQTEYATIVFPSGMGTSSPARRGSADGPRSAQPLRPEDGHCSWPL
PD-1, endogenous (human T cell lines) (human (endogenous in Jurkat, MOLT-4)): residues 25-288 of Q15116
PD-1-cHA T234A (Q15116, form named): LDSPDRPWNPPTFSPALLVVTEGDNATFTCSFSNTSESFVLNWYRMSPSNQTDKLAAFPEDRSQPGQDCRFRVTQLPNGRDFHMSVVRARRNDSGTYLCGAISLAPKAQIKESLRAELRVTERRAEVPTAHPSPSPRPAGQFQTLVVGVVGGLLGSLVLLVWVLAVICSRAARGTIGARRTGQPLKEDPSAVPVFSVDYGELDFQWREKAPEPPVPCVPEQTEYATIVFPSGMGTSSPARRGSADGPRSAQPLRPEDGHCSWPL
UniProt P45974: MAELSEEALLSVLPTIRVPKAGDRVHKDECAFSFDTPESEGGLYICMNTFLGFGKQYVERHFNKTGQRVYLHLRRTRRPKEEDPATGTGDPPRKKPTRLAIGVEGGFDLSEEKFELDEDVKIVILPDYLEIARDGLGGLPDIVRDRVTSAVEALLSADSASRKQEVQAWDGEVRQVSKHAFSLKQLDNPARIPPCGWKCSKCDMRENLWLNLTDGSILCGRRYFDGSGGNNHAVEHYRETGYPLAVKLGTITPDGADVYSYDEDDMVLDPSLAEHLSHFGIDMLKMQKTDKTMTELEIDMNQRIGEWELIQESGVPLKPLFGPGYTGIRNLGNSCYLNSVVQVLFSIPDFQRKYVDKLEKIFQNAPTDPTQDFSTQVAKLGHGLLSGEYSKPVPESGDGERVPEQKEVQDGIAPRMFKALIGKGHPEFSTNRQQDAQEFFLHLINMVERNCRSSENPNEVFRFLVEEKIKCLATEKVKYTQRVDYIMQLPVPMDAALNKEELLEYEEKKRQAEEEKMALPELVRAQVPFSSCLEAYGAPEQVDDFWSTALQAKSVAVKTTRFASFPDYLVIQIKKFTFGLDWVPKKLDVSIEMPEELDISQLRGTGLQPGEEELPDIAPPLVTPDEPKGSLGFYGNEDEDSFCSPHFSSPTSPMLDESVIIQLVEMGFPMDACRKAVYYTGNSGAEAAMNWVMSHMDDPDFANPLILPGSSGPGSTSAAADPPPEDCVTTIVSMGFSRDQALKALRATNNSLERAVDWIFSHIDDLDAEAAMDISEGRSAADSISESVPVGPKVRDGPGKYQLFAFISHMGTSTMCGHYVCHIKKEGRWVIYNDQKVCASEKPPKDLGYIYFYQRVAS
UniProt Q02242, residues 25-288: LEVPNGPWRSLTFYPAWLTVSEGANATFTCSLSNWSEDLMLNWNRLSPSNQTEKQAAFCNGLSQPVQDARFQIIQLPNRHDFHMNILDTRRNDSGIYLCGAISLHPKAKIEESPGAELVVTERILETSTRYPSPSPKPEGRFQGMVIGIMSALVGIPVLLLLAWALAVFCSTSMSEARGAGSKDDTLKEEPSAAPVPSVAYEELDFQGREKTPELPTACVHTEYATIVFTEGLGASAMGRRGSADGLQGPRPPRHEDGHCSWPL
UniProt P28482: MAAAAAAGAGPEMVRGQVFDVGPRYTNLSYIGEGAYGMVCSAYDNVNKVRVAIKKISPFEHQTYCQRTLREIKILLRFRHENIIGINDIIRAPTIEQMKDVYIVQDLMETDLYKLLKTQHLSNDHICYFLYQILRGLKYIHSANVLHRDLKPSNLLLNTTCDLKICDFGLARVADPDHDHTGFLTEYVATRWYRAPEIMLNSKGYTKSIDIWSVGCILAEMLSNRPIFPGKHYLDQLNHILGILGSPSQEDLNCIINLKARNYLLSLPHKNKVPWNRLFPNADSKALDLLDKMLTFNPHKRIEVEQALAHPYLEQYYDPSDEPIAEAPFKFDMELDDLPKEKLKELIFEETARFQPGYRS
UniProt P56399: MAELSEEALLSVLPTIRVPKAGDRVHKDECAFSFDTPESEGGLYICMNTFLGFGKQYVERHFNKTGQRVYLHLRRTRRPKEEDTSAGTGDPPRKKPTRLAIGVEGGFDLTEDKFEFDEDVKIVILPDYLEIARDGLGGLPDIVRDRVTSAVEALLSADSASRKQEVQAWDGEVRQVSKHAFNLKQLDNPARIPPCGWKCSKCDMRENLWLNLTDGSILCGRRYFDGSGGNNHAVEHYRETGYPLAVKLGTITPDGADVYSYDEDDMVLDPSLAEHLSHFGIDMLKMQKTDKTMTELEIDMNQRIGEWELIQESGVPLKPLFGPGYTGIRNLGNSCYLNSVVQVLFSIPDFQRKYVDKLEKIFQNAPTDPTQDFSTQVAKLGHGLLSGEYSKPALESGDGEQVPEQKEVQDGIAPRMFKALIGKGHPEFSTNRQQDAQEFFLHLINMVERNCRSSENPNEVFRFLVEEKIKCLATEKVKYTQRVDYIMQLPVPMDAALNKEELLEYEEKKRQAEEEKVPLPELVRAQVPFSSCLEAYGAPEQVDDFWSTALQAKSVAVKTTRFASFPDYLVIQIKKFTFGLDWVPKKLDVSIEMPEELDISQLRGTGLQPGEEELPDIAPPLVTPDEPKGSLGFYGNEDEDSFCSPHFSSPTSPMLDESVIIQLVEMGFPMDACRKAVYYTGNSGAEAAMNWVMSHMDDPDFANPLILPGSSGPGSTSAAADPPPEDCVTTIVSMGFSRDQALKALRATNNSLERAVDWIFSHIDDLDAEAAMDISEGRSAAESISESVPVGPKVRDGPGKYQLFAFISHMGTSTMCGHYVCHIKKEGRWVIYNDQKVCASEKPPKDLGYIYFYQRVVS
UniProt P27361: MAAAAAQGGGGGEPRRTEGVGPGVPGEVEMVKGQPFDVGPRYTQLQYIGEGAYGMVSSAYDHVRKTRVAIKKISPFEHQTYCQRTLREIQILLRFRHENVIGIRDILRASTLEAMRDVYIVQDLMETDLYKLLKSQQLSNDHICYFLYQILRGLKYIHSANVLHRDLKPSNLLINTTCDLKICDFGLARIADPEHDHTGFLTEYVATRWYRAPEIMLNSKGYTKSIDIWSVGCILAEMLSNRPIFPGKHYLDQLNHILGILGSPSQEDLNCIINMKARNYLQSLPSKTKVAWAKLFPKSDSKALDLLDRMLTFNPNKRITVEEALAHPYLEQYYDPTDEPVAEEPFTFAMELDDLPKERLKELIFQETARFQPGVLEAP

How the values were obtained:
PD-1-cHA (human) [1] = molecular target: PD-1-cHA (human) (UniProt Q15116); assay: co-IP; HEK293T cells co-transfected with indicated constructs; lysed in EBC buffer, anti-HA or anti-Flag beads 4 h at 4 °C, washed with NETN buffer, immunoblot; some panels with 10 μM MG132, co-expressed ERK, KRAS or BRAF, or Trametinib (0.5 or 1 μM)
PD-1-cHA (human) [2] = molecular target: PD-1-cHA (human) (UniProt Q15116); assay: pull-down; GST pull-down precipitates from HEK293T cell lysates transfected with indicated constructs (Fig. 3j); which partner carried GST is not shown
PD-1-cHA T234A (human) = PD-1-cHA T234A (human) (UniProt Q15116); assay: co-IP; HEK293T cells co-transfected with indicated constructs; lysed in EBC buffer, anti-HA or anti-Flag beads 4 h at 4 °C, washed with NETN buffer, immunoblot; some panels with 10 μM MG132, co-expressed ERK, KRAS or BRAF, or Trametinib (0.5 or 1 μM)
GST-USP5 (human) = GST-USP5 (human) (UniProt P45974); assay: pull-down; 3 μg GST-USP5 WT or truncates (or GST) immobilized on glutathione-Sepharose, incubated with HA-PD-1 WT or truncates from HEK293T cell lysates at 4 °C for 3 h, washed five times with NETN buffer; one panel with lysate of cells treated with 1 μM Ulixertinib; only the target purified
[3] = molecular target: PD-1, endogenous (mouse primary CD3+ T cells) (mouse (endogenous in primary CD3+ T cells)) (UniProt Q02242); assay: co-IP; anti-PD-1 IP of endogenous proteins from Jurkat (PHA 150 ng/mL, 3 days), MOLT-4 and mouse primary CD3+ T cells (anti-CD3/CD28 2 μg/mL, 48 h); one MOLT-4 panel with Trametinib and MG132
[4] = molecular target: PD-1, endogenous (human T cell lines) (human (endogenous in Jurkat, MOLT-4)) (UniProt Q15116); assay: as above

| binding (PD-1-cHA (human) [1]) | binding (GST-USP5 (human)) | Substance | also measured |
| --- | --- | --- | --- |
| binds | – | ERK2 (from UniProt P28482 1-360) (enzyme) | binding (PD-1-cHA (human) [2]): binds |
| binds | – | Myc-USP5 (from UniProt P45974 1-858) (enzyme) | binding (PD-1-cHA T234A (human)): binds |
| – | binds | PD-1-cHA (from UniProt Q15116 25-288) (receptor) | – |
| – | binds | PD-1-cHA T234A (from UniProt Q15116 25-288) (receptor) | – |
| – | no binding (tested: 3 μg GST-USP5) | PD-1-ΔC192-288 (from UniProt Q15116 25-191) (domain or fragment) | – |
| – | binds | PD-1-ΔC241-288 (from UniProt Q15116 25-240) (domain or fragment) | – |
| – | – | Usp5, endogenous (mouse primary CD3+ T cells) (from UniProt P56399 1-858) (enzyme) | binding [3]: binds |
| – | – | ubiquitin-specific protease 5 (USP5), endogenous (from UniProt P45974 1-858) (enzyme) | binding [4]: binds |

| Substance | binding (PD-1-cHA (human) [1]) | binding (GST-USP5 (human)) | also measured |
| --- | --- | --- | --- |
| ERK1 (from UniProt P27361 1-379) (enzyme) | binds | – | binding (PD-1-cHA (human) [2]): binds |
